# Assay results published in PubChem BioAssay AID1347428 (National Center for Advancing Translational Sciences (NCATS), 2020).
# Hit rate of the full screen: of about 91,000 compounds, about 290 (0.32%) were called active. The inconclusive results got no clear call from the source; some entries with a clear call stand among them for comparison. Calls come from the whole dose curve; as a rule, active = well fitted inhibition curve with a large enough effect; inconclusive = small, poorly fitted or top-dose-only effect; inactive = no such curve, though single readings can be large or run the other way. A potency beside an inconclusive call is a rough fit, not a confirmed value.
# Target: Single-stranded DNA cytosine deaminase (Homo sapiens) (UniProt Q9GZX7)
# Chain of UniProt Q9GZX7 (Q9GZX7 whole entry, looked up): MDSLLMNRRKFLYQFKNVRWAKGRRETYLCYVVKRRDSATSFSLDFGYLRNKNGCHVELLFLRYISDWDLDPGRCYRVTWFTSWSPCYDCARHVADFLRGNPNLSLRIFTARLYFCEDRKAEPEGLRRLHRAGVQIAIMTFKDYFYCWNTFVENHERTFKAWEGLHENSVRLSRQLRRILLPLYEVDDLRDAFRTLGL
# Assay: Primary qHTS assay for inhibitors of Activation Induced Cytidine Deaminase (AID): AID signal; note: nearly all actives have a fitted effect of over 25% in size
# Details: AID deamination FRET fluorescence, UDG-coupled, 4 h; activity change, negative = inhibition: at 115 µM (top of the series)
# % is set by controls: 0 for no effect and ±100 for the full control effect; potency is the fitted concentration of half-maximal effect; tags give direction and shape of the fitted curve.
Structure (SMILES),Potency,"activity change, negative = inhibition"
Cc1ccc(CNC(=O)c2sc3nc4n(c(=O)c3c2C)CCCCC4)cc1,"inconclusive: 50.1 µM [inhibitor, partial curve, poor fit]",
Cc1ccc(N2CCN(C(=O)NCc3noc4ccc(C)cc34)CC2)c(C)c1,"inconclusive: 35.5 µM [inhibitor, full curve, poor fit]",
Cc1ccsc1CN(C(=O)COc1cccc(C)c1C)C1CCS(=O)(=O)C1 (stereo not given),"inconclusive: 31.6 µM [inhibitor, partial curve, poor fit]",
CCOc1ccc(CNC(=O)Cn2ccc3cc(S(=O)(=O)N4CCCCC4)ccc32)cc1,,inactive: -10.9%
COc1ccc(NC(=O)C2CCN(S(=O)(=O)c3ccc4c(c3)CCCC(=O)N4)CC2)c(OC)c1,,inactive: 29.7%
COc1cc(Br)c(/C=C(/C#N)C(=O)c2ccccc2)cc1OC,,inactive: -18%
COc1ccc(CC(=O)N(Cc2nc(-c3ccc(C)cc3)no2)C(C)C)cc1,"inconclusive: 56.2 µM [inhibitor, partial curve, poor fit]",
O=C(Nc1ccc2nc(SCCOc3ccccc3Cl)sc2c1)c1ccc2c(c1)OCO2,,inactive: 32.3%
Cc1c(C(=O)N(Cc2ccco2)Cc2ccccc2Cl)oc2ccc(F)cc12,"inconclusive: 50.1 µM [inhibitor, partial curve, poor fit]",
CCOC(=O)C1=C(CN(C)Cc2ccccc2)NC(=O)NC1c1ccc(OC)cc1 (stereo not given),"inconclusive: 89.1 µM [inhibitor, single point]",
O=C(NCC(c1cccnc1)N1CCc2ccccc21)c1ccc(F)cc1 (stereo not given),"inconclusive: 79.4 µM [inhibitor, partial curve, poor fit]",
CCCCOc1ccccc1C(=O)N(Cc1cccc(F)c1)C1CCS(=O)(=O)C1 (stereo not given),"inconclusive: 56.2 µM [inhibitor, partial curve, poor fit]",
CCCc1c(OCCCOc2ccc(OCC(=O)O)cc2)ccc(C(C)=O)c1O,"inconclusive: 89.1 µM [inhibitor, partial curve, poor fit]",
Cc1oc(-c2ccccc2Cl)nc1CS(=O)(=O)CC(=O)NC(C)c1ccccc1 (stereo not given),"inconclusive: 39.8 µM [inhibitor, full curve, poor fit]",
COc1ccc(/C=C/C(=O)Nc2ccc3nc4c(c(Nc5ccc(OC)c(OC)c5)c3c2)CCCC4)cc1,"inconclusive: 31.6 µM [inhibitor, full curve, poor fit]",
COc1ccc(-c2noc(CSc3nnc(Cc4ccccc4)n3-c3cccc(C)c3)n2)cc1,"inconclusive: 39.8 µM [inhibitor, partial curve, poor fit]",
c1ccc2c(c1)ncc1nncn12,,inactive: 26%
Cc1ccc(C)c(NC(=O)c2nnn(Cc3ccc(F)cc3Cl)c2N)c1,"inconclusive: 39.8 µM [inhibitor, single point]",
CC(C)(CO)NC/C=C/c1ccccc1,,inactive: -3.35%
CCCOC(=O)Nc1ccccc1N=C1CCC/C1=C/c1ccccc1,,inactive: 3.26%

Structure (SMILES),Potency,"activity change, negative = inhibition"
CCn1cc2nc(SCc3cccc(C(F)(F)F)c3)n(Cc3ccc(OC)cc3)c(=O)c2n1,"inconclusive: 39.8 µM [inhibitor, partial curve, poor fit]",
O=C(Nc1cccc(C(F)(F)F)c1)C1CCN(S(=O)(=O)c2cccs2)CC1,"inconclusive: 15.8 µM [inhibitor, full curve, poor fit]",
Cc1ccc(Nc2c(-c3ccc(C)o3)nc3cccc(C)n23)cc1,"inconclusive: 70.8 µM [inhibitor, single point]",
CC(C)(C)OC(=O)N1CCC(c2c(C(=O)N3CCN(Cc4ccccc4)CC3)cnn2-c2ccc(Cl)cc2)CC1,"inconclusive: 7.94 µM [inhibitor, full curve, poor fit]",
C=CCn1c(C)cc(C(=O)COC(=O)c2cc(C)nc3ccccc23)c1C,"inconclusive: 79.4 µM [inhibitor, partial curve, poor fit]",
S=C(NC(=NC=C(Cl)Cl)c1ccc(Cl)cc1)Nc1ccc(Cl)cc1,,inactive: -14.8%
CCOc1ccc(Nc2ncnc3scc(-c4ccc(OC)cc4)c23)cc1,"inconclusive: 28.2 µM [inhibitor, full curve, poor fit]",
Cc1ccc(NC(=O)c2oc3ccccc3c2NC(=O)C23CC4CC(CC(C4)C2)C3)cc1,"inconclusive: 50.1 µM [inhibitor, full curve, poor fit]",
Cc1c(CC(=O)O)c(=O)oc2cc(OCc3ccccc3F)ccc12,,inactive: -11.4%
Cc1ccccc1CNC(=O)C1CCCN(S(=O)(=O)N(C)c2ccc(F)cc2)C1 (stereo not given),"inconclusive: 56.2 µM [inhibitor, partial curve, poor fit]",
CNS(=O)(=O)c1ccc(C)c(C(=O)Nc2ccc(N3CCCCC3)c3ccncc23)c1,,inactive: 18.3%
CCOc1ccc(C2Nc3ccccc3-c3nnc(SCc4ccccc4)nc3O2)cc1OC (stereo not given),,inactive: -3.9%
CS(=O)(=O)c1ccc(C(=O)CSc2ccc(F)cc2)cc1,,inactive: -8.62%
CC(C)CCN(Cc1ccco1)C(=O)c1cc2c(Cl)nc3ccccc3c2s1,"inconclusive: 35.5 µM [inhibitor, partial curve]",
CCOc1ccccc1Nc1cc(-c2ccccc2)nc(C)n1,"inconclusive: 31.6 µM [inhibitor, partial curve, poor fit]",
COc1cc(Cl)c(C)cc1NC(=O)CSc1ncc(S(=O)(=O)c2ccc(C(C)(C)C)cc2)c(=O)[nH]1,"inconclusive: 70.8 µM [inhibitor, partial curve, poor fit]",
Cn1c2ccccc2c2c(C(=O)N3CCN(c4ccc(F)cc4)CC3)cn(C3CCCCC3)c(=O)c21,"inconclusive: 15.8 µM [inhibitor, full curve]",
COc1ccc(-c2nc(SCC(=O)Nc3ccc4c(c3)OCO4)c(-c3ccc(OC)cc3)[nH]2)cc1,"inconclusive: 44.7 µM [inhibitor, partial curve, poor fit]",
CCOC(=O)c1ccc(NS(=O)(=O)c2ccc(Br)s2)cc1,,inactive: -0.0167%
O=C(O)CCCCCCCCC#CC#CCCc1ccccc1,"inconclusive: 79.4 µM [inhibitor, partial curve, poor fit]",
